Test results as given in the RNAGym collection of RNA variant scans (doi:10.7554/elife.90254).
The source gives no read counts; variants with many changes may rest on few reads.

B1: OR4K15 (parent)
chain: GUUAACGGUCAUAGGCCAUGGAAACUAGGAGCACCAUUUCGCUGCCAGUGAAGAAAUGAACAAAGAAAAUCUGGGCCAGGCAGGCAUCAAAAGAAAUAGUCUUGCGCUCAACCAGAAAGUCUGUAAUCAUUUUAAGGGUA

Variants of: B1
Test: self-cleavage, relative activity (ratio to wild type); higher = more cleavage; in vitro, sequencing; the parent is a self-cleaving ribozyme

Row | Variant | self-cleavage
1 | U38C A67U U70C | 0.92
2 | A5G C16U U19C U39A G44A U72C U87C | 0.3
3 | A5G U9A A64G A110U | 0.79
4 | A54G A59G U72A A90G | 0.47
5 | U37C A114G A117G | 0.29
6 | A24G A66G A78U | 0.51
7 | U72A A92G U100C U132C | 0.32
8 | A33C U38C U49C A92C | 1.95
9 | A11G A18G A55G | 1.11
10 | C16A U43C C121A | 0.17
11 | A18U A68G A98U | 1.29
12 | U37C U39C A56G A86G | 2.34
13 | U37A U39A A67G | 1.24
14 | U9C A82G U100C U108C U131C | 0.01
15 | A62G U102A U103C | 0.22
16 | U39C C81U U133C | 0.42
17 | A33U U39A A59G | 1.47
18 | A36U U37A A52U U87C A114U A118G U127A | 0.01
19 | U43C U103C U130C | 0.64
20 | U2C A13U A89G | 0.51
21 | A24U A63U A96G | 1.74
22 | A96G U102C U122A | 2.73
23 | U38C A64G A96G U127C | 1.1
24 | A24G A67G U108A | 0.05

Row | Variant | self-cleavage
25 | U19C C42A A54G | 1.51
26 | A23G G58U A60G A110G A140G | 0.11
27 | A36G C77A A78U | 2.07
28 | A82G U87C A117G A125G | 0.11
29 | A18G A54G A62G U120C | 0.89
30 | A24G A56G G84A U132C | 1.5
31 | A5G A89U U127A | 1.34
32 | G84A A94U U108A A135G | 0
33 | U57G U87C U124C | 0.63
34 | A33U A68G A125G | 0.43
35 | U19A G28C U38A U57G | 0.51
36 | A54G A60G A89U A117G | 1.54
37 | A30G U49A A63G U97C U100C A111G | 0.02
38 | G31A U43A A66G | 0.86
39 | A11G A55U A82C U133C | 0.25
40 | A36G A63G U72A A96C U102A | 0.08
41 | U39A U57C U97A G138C | 1.21
42 | U9C U12A C42G A59G | 1.39
43 | A23G U57G U108C | 0.01
44 | U39A U43A U57A A89G A111G | 0.04
45 | U43A A52G A59G U97C | 0.74
46 | U39C U103C U124C | 0.35
47 | U2A A66U A82G U87C U130C | 0.05
48 | A4U A62U C101U | 0.71

Row | Variant | self-cleavage
49 | A52C A59G A67G U87C C88A A92G A117G U132C | 2.22
50 | A5G A60G A95G U122A | 0.54
51 | A51G A64G A67G | 0.92
52 | C46U A59G A96U U97C | 1.46
53 | G15A A52U A67U A129U | 0.54
54 | A59G A86G A135U | 1.81
55 | U19A A24G U37C A92G | 1.34
56 | U9C U49C A69G A86C U122C | 0.58
57 | A51G U100C U122C U130C A140G | 2.79
58 | A23G A59G U87C | 1.13
59 | A23G U37C A118G | 1.03
60 | U2C A78G A111U | 0.02
61 | A54G A111G U131C | 0.02
62 | A68G A89G A118G | 0.83
63 | U9C U108A U132C | 0.01
64 | A22G A52G A62G U70C | 0.54
65 | U37C U49C A64G A118G U131C | 0.33
66 | A63U U103C U132A | 0.44
67 | U39A G44A U127C | 0.2
68 | A27G A59C A140G | 1.19
69 | U43C A66U U139C | 1.16
70 | A5G A117G U130C | 0.67
71 | A54U A114U A116G | 0
72 | U39A A52G U122C U132C | 1.09

Row | Variant | self-cleavage
73 | G20U C32U A90G U97C A98G | 0.23
74 | U37C U38C A111G A135U | 0.01
75 | A22G A47U U127C | 0.51
76 | A18G A33G A56G A67G U100C G119C | 1.49
77 | A18G U122C A129G | 1.73
78 | A5G C32U C46U | 0.84
79 | A30U A33G U37C | 1.02
80 | A92G C113U A114U | 0.01
81 | U9C U38C A63G U108C A140C | 0.02
82 | A11U A33U U70A | 0.41
83 | U19C U70C A140G | 0.33
84 | U2C U19C A23G | 1.04
85 | U38C G119A U132C | 1.97
86 | U38C A62G A92G A118G | 1.76
87 | A11G A24G U102C | 1.1
88 | A63G A91U A114U | 0.4
89 | A92U U122A C128A | 1.1
90 | U39G A52G U70C A86G | 0.62
91 | U9C A62G A114U | 0.01
92 | U19C A92G U100C | 2.1
93 | A89G A116G U127C A140G | 0.28
94 | A47G U100A G115U | 0.01
95 | A63G A96G A111G A129G | 0.02
96 | A23G U43C A67U U72A A86G U97A A125G | 0.11

Row | Variant | self-cleavage
97 | U3C A11G A56G U97C U122C A129G | 0.55
98 | A69G A82G U108C | 0.02
99 | U38C U57G A67G G73U | 0.09
100 | A36U U37G U108A U132C | 0.02
101 | U39C A68U A95G U132C G138A | 1.95
102 | A23G U37C A54G C109U | 0.32
103 | A18U A116G U120C U133A | 0.27
104 | A27G A59C A116G | 1.13
105 | A11C A22U A47U A52G U102A | 0.37
106 | A33G U127C A135G | 0.34
107 | A56G U100C G106C U108C | 0.01
108 | G74A G80U A96G U102C A111G | 0.03
109 | A18G U103A A110G A125G | 0.1
110 | A23G A52U A92U | 1.2
111 | A24G U100C U139C | 1.41
112 | U38C A54G A91G A126U A129U | 0.58
113 | U19C U26C A91G A114G | 0.41
114 | U108C A114G A125G | 0
115 | C6A U37C A52G A110G U120C | 0.02
116 | U2C A13G A94G | 0.89
117 | G7U C85U U120C | 0.34
118 | A18G U39C U87C A116G | 0.69
119 | A51G A60G A118G U122C U131C | 0.46
120 | U38C G41C A118G | 0.89

Row | Variant | self-cleavage
121 | U57G A82C U122A | 0.04
122 | A56G A94G A117U | 0.5
123 | A11G U37C A78U A129G U132A | 0.15
124 | U39C A66U U72C A86G A92G | 0.18
125 | A18G A62G A110G | 0.09
126 | A69U A78U A111U | 0.04
127 | U19C A36C A51U A140U | 1.82
128 | A24G U39A A67G A118G | 1.2
129 | A5G U26C U43C | 0.67
130 | U38C A114G G115U | 0
131 | A23G A30G A51U A55G A62G U103C | 0.61
132 | C40U U49A U57C | 0.93
133 | U2C A13G C16A A59U A116U | 0.49
134 | A18U U57G A94G A118G U122A U130C | 0.88
135 | U38C A67G U133C | 1.92
136 | U43C U49C A82G U120G | 0.19
137 | A23U A55U U57C A66U A78G A94C U132C | 0.1
138 | U19C A36U A59G | 0.84
139 | A30G U97A A114G | 0.74
140 | A23G A51G U72G | 0.41
141 | U37C A47U A82U A111G | 0.02
142 | A24G G44U A82G | 0.74
143 | A54G A68G U108C | 0.03
144 | U9A A23G U70C A92G | 0.4

Row | Variant | self-cleavage
145 | A23G A24G A92U A95G A125G U127C | 0.59
146 | A18C A60C U124C | 0.3
147 | A5G U103C A118G A126U | 1.73
148 | U72A U120G U132C | 0.09
149 | A13G A82G U132C | 0.47
150 | G7U A22G A47U A95G | 1.61
151 | U2C A59U A118G | 0.77
152 | A51G A54G G73A U97A | 0.17
153 | A24C A54G A114G | 0.48
154 | A52G A111C U120A | 0.02
155 | U19C U87G A116G | 0.2
156 | U19C U57C A117G | 0.11
157 | A59U A96G U103C | 1.07
158 | A54G A66G C71U C107U | 0.02
159 | U108C U130C U139C | 0
160 | A64G U103C U120C A126G | 0.24
161 | U2C A13G A66U A68G A135G | 0.5
162 | A47G A51U A55G A111C U130C | 0.03
163 | A55U A95G U133C | 2.87
164 | A23U A33U A56G A125U | 1.32
165 | U38A A51G A59G U108A C128U U132C | 0.03
166 | A18C U70C A110G U133G | 0.07
167 | C34U A63G A86G | 0.89
